From patent publication US20180155450A1 (Sanofi, published 2018)

T1: recombinant human IL4 (human, UniProt P05112 25-153)
T1 construct: also called Antigen1
T1 sequence (looked up): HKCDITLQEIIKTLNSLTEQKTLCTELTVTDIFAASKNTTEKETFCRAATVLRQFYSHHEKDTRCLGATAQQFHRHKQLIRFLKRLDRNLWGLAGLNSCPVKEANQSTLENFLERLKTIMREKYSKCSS


Tests used:
[1] = molecular target: T1, recombinant human IL4; assay: SPR, Biacore 3000; CODV-Ig captured by anti-human Fc, antigen as analyte
[2] = molecular target: T2, recombinant human IL13 (human, UniProt P35225 in part, limits assumed); assay: as above
T2 construct: also called Antigen2
T2 sequence (P35225 35-146 limits assumed): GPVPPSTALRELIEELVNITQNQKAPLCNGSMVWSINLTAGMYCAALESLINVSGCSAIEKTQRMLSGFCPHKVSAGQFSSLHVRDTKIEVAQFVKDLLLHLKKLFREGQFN

Binder	Kd [1] [nM]	Kd [2] [nM]
CODV-Ig Batch ID 112 (IL4 × IL13 on LC; L1=1, L2=1, L3=2, L4=4) (bispecific antibody) chain 1: EVQLKESGPGLVAPGGSLSITCTVSGFSLTDSSINWVRQPPGKGLEWLGMIWGDGRIDYADALKSRLSISKDSSKSQVFLEMTSLRTDDTATYYCARDGYFPYAMDFWGQGTSVTVSSGGQVQLQQSGPELVKPGASVKISCKASGYSFTSYWIHWIKQRPGQGLEWIGMIDPSDGETRLNQRFQGRATLTVDESTSTAYMQLRSPTSEDSAVYYCTRLKEYGNYDSFYFDVWGAGTLVTVSSGGGG[letters of human IgG1 constant region not shown] chain 2: DIQMTQSPASLSVSVGDTITLTCHASQNIDVWLSWFQQKPGNIPKLLIYKASNLHTGVPSRFSGSGSGTGFTLTISSLQPEDIATYYCQQAHSYPFTFGGGTKLEIKGDIVLTQSPASLAVSLGQRATISCRASESVDSYGQSYMHWYQQKAGQPPKLLIYLASNLESGVPARFSGSGSRTDFTLTIDPVQAEDAATYYCQQNAEDSRTFGGGTKLEIKGRTVAAPSVFIFPPSDEQLKSGTASVVCLLNNFYPREAKVQWKVDNALQSGNSQESVTEQDSKDSTYSLSSTLTLSKADYEKHKVYACEVTHQGLSSPVTKSFNRGEC	0.005	0.055
CODV-Ig Batch ID 114 (IL4 × IL13 on LC; L1=1, L2=2, L3=0, L4=2) (bispecific antibody) chain 1: EVQLKESGPGLVAPGGSLSITCTVSGFSLTDSSINWVRQPPGKGLEWLGMIWGDGRIDYADALKSRLSISKDSSKSQVFLEMTSLRTDDTATYYCARDGYFPYAMDFWGQGTSVTVSSQVQLQQSGPELVKPGASVKISCKASGYSFTSYWIHWIKQRPGQGLEWIGMIDPSDGETRLNQRFQGRATLTVDESTSTAYMQLRSPTSEDSAVYYCTRLKEYGNYDSFYFDVWGAGTLVTVSSGG[letters of human IgG1 constant region not shown] chain 2: DIQMTQSPASLSVSVGDTITLTCHASQNIDVWLSWFQQKPGNIPKLLIYKASNLHTGVPSRFSGSGSGTGFTLTISSLQPEDIATYYCQQAHSYPFTFGGGTKLEIKGDIVLTQSPASLAVSLGQRATISCRASESVDSYGQSYMHWYQQKAGQPPKLLIYLASNLESGVPARFSGSGSRTDFTLTIDPVQAEDAATYYCQQNAEDSRTFGGGTKLEIKGGRTVAAPSVFIFPPSDEQLKSGTASVVCLLNNFYPREAKVQWKVDNALQSGNSQESVTEQDSKDSTYSLSSTLTLSKADYEKHKVYACEVTHQGLSSPVTKSFNRGEC	0.004	0.075
CODV-Ig Batch ID 115 (IL4 × IL13 on LC; L1=1, L2=2, L3=0, L4=4) (bispecific antibody) chain 1: EVQLKESGPGLVAPGGSLSITCTVSGFSLTDSSINWVRQPPGKGLEWLGMIWGDGRIDYADALKSRLSISKDSSKSQVFLEMTSLRTDDTATYYCARDGYFPYAMDFWGQGTSVTVSSQVQLQQSGPELVKPGASVKISCKASGYSFTSYWIHWIKQRPGQGLEWIGMIDPSDGETRLNQRFQGRATLTVDESTSTAYMQLRSPTSEDSAVYYCTRLKEYGNYDSFYFDVWGAGTLVTVSSGGGG[letters of human IgG1 constant region not shown] chain 2: DIQMTQSPASLSVSVGDTITLTCHASQNIDVWLSWFQQKPGNIPKLLIYKASNLHTGVPSRFSGSGSGTGFTLTISSLQPEDIATYYCQQAHSYPFTFGGGTKLEIKGDIVLTQSPASLAVSLGQRATISCRASESVDSYGQSYMHWYQQKAGQPPKLLIYLASNLESGVPARFSGSGSRTDFTLTIDPVQAEDAATYYCQQNAEDSRTFGGGTKLEIKGGRTVAAPSVFIFPPSDEQLKSGTASVVCLLNNFYPREAKVQWKVDNALQSGNSQESVTEQDSKDSTYSLSSTLTLSKADYEKHKVYACEVTHQGLSSPVTKSFNRGEC	0.011	0.062
